From US20190284241A1 (Affibody, published 2019) come the findings set out here.

Where two headings read alike, the source gives them in different places.

The target of assay [1] is T1, cynomolgus FcRn (Biorbyt, cat. no. orb99075) (cynomolgus, UniProt Q8SPV9 24-297; Q8SPW0 21-119, limits assumed).
T1 construct: Bought protein, immobilised on a CM5 chip; also called cFcRn
In words: Biacore, cFcRn immobilized (1098 RU), 90 nM His6-tagged Z variant, pH 6.0. A general note: SPR reads the build-up and loss of mass on a sensor chip optically.

For assay [2], the target named is T1, cynomolgus FcRn (Biorbyt, cat. no. …). Described as above. This is another data set of the same source.
Assay [3] concerns the target T2, human FcRn (Biorbyt, cat. no. orb84388) (human, UniProt P55899 24-297; P61769 21-119, limits assumed).
T2 construct: Bought soluble protein; not biotinylated on Biacore chips and ELISA coat; also called hFcRn
In words: AlphaLISA, blocks IgG beads binding biotin-hFcRn, pH 6.0. For orientation: In Alpha technology, singlet oxygen from a donor bead excites a nearby acceptor bead.

The target in assay [4] is T3, human FcRn-eGFP on transduced HeLa cells (human, UniProt P55899 24-365; P16213 21-119).
T3 construct: Fixed, saponin-permeabilised HeLa cells; also called hFcRn-eGFP; hFcRn; not shown: eGFP at the cytoplasmic tail
In words: flow cytometry, hFcRn-eGFP HeLa cells, blocks Alexa647-hIgG, pH 6.0.

The target of assay [5] is T2, human FcRn (Biorbyt, cat. no. orb84388). In words: SPR Biacore, hFcRn immobilised; sample before the stability test (0). As to the method:
(§1) The His₆-tagged Z variants were further assessed in terms of preserved binding capacity to FcRn after introduction of alterations in the scaffold, as well as after having been subjected to the stability test, i.e. incubated at 37° C. for 2 weeks. Comparative kinetic constants (kₒₙ and koff) and affinities (KD) were determined using a Biacore 2000 instrument. The target protein human FcRn (Biorbyt, cat. no. orb 84388) was immobilized on the carboxylated dextran layer surface of a CM5 chip (GE Healthcare). The immobilization was performed using amine coupling chemistry according to the manufacturer's protocol and using HBS-EP as running buffer. One flow cell surface on the chip was activated and deactivated for use as blank during analyte injections. The immobilization level of hFcRn on the surface was approximately 750 RU. […] Regeneration by three pulses of HBS-EP followed by 10 min equilibration in running buffer was applied after each analyte injection. Kinetic constants were calculated from the sensorgrams using the Langmuir 1:1 model of the BiaEvaluation software 4.1 (GE Healthcare). Curves of the blank surface were subtracted from the curves of the ligand surfaces and the data from the buffer cycles were subtracted from the data of the test-sample cycles to correct for any drift in signal.

For assay [6] the target is unchanged. In words: SPR Biacore, hFcRn immobilised; sample after 2 weeks at 37 °C (2 w). On the procedure: as §1
In assay [7] the target is T4, human FcRn: extracellular domain of human αFcRn in complex with human β2-microglobulin, soluble, produced in … (human, UniProt P55899 24-290; P16213 21-119).
T4 construct: Ig kappa leader cleaved upon secretion; amine-coupled to the chip in Biacore; also called hFcRn; not shown: C-terminal GS-linker and FLAG tag; C-terminal spacer and His6 tag
Briefly: SPR (Biacore); hFcRn immobilised, injected at 40, 160 and 640 nM; pH 6.0.

T2 sequence (P55899 24-297 limits assumed, chain 1 of 2): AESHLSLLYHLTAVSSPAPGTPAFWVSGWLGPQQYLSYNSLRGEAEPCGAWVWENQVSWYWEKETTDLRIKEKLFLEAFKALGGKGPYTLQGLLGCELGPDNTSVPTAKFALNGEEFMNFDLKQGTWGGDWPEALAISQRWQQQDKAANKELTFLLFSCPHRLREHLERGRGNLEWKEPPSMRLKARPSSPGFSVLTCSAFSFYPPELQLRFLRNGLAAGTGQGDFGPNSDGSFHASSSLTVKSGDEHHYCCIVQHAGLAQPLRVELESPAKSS
T2 sequence (P61769 21-119 limits assumed, chain 2 of 2, further chain): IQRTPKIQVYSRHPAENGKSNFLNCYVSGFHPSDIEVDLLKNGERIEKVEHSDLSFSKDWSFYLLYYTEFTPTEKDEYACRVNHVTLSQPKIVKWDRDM
T1 sequence (Q8SPV9 24-297 limits assumed, chain 1 of 2): as the sequence (P55899 24-297 limits assumed, chain 1 of 2) above, with N39D, E44Q, G99S, S189G, S190N, L217M, S269T counted along it
T1 sequence (Q8SPW0 21-119 limits assumed, chain 2 of 2, further chain): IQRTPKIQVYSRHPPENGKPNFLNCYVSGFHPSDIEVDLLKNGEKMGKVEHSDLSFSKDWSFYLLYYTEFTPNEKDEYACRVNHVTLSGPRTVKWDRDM

B1: His6-tagged Z18632 (designed binder)
chain: AEAKFAKEWTDAAHEIRWLPNLTFDQRVAFIHKLRDDPSQSSELLSEAKKLSESQAPK
notes: not shown: N-terminal His6 tag
Regarding B1, in assay [1], the binding result is “binds”.

B2: His6-tagged Z18634 (designed binder)
chain: AEAKFAKEADAAGHEIRWLPNLTFDQRVAFIHKLRDDPSQSSELLSEAKKLSESQAPK
notes: as for B1
Take B2: the binding result in assay [2] is on record as “binds”.

B3: ZZA3716 (designed binder)
chain: AEAKYAKEADAAGHEIRWLPNLTFDQRVAFIHKLRDDPSQSSELLSEAKKLNDSQAPKGAPGGGGSGGGGSGGGGSTSAEAKYAKEADAAGHEIRWLPNLTFDQRVAFIHKLRDDPSQSSELLSEAKKLNDSQAPKGTGGGGSGGGGSGGGGSPRLAEAKEAANAELDSYGVSDFYKRLIDKAKTVEGVEALKDAILAALP
notes: also called Z17303-GAP(G4S)3TS-Z17303-GT(G4S)3PR-PP013
Regarding B3, the IC50 in assay [3] stood at 0.18 nM; in assay [4] it was 3.5 nM.

B4: His6-tagged Z11948 (designed binder)
chain: MGSSHHHHHHLQAEAKYAKEQDAAAHEIRWLPNLTFDQRVAFIHKLADDPSQSSELLSEAKKLNDSQAPK
notes: Original scaffold
Turning to B4, in assay [5], binding was characterised by a dissociation constant (Kd) of 2.9 nM, the koff turned out to be 0.00456 s⁻¹ and the association rate constant (kon) amounted to 1.6e+06 M⁻¹ s⁻¹. In assay [6], the Kd was 1.8 nM, the koff was determined as 0.00575 s⁻¹ and the kon is 3.15e+06 M⁻¹ s⁻¹.

B5: ZZ3556 (designed binder)
chain: GSSHHHHHHLQAEAKYAKEADAAGHEIRWLPNLTFDQRVAFIHKLRDDPSQSSELLSEAKKLNDSQAPKGTGGGGSGGGGSGGGGSAEAKYAKEADAAGHEIRWLPNLTFDQRVAFIHKLRDDPSQSSELLSEAKKLNDSQAPK
notes: Dimer of Z17303 without PP013, N-terminal His6 tag; also called GSS-His6-LQ-Z17303-GT(G4S)3-Z17303
B5: the IC50 was 0.19 nM in assay [3] and 1.9 nM in assay [4].

B6: ZAZ3715 (designed binder)
chain: AEAKYAKEADAAGHEIRWLPNLTFDQRVAFIHKLRDDPSQSSELLSEAKKLNDSQAPKGAPGGGGSGGGGSGGGGSTSLAEAKEAANAELDSYGVSDFYKRLIDKAKTVEGVEALKDAILAALPGTGGGGSGGGGSGGGGSPRAEAKYAKEADAAGHEIRWLPNLTFDQRVAFIHKLRDDPSQSSELLSEAKKLNDSQAPK
notes: also called Z17303-GAP(G4S)3TS-PP013-GT(G4S)3PR-Z17303
B6: the results for the IC50 in assay [3] and in assay [4] were 0.17 nM and 3.6 nM, respectively.

B7: negative control Z03638-PP013, [Z03638]-GAP(G4S)4TS-[PP013] (designed binder)
chain: AEAKYAKELGWATWEIFNLPNLTGVQVKAFIDKLRDDPSQSSELLSEAKKLNDSQAPKGAPGGGGSGGGGSGGGGSGGGGSTSLAEAKEAANAELDSYGVSDFYKRLIDKAKTVEGVEALKDAILAALP
For B7, in assay [7], the binding result is listed as “no binding (tested: 640 nM)”.

By IC50 is commonly meant the concentration needed to halve the response being measured. Read a low IC50 as higher potency. As usually defined, the Kd is a measure of binding affinity in units of concentration. For orientation: koff means the rate constant with which the complex falls apart. A high value points to fast dissociation. What is called kon is the rate constant with which the complex forms.
